Test results as given in PMC5382322.
No constants are given. Whether binding was seen depends on the method and setting. Binding seen in cells or lysates may run through a third protein. Some binding calls cover weakened binding; strength is not graded here. Sequences can lack the tags named with a protein.

Protein sequences, listed by entry. Tags and fused reporters are not part of them.
UniProt O97159: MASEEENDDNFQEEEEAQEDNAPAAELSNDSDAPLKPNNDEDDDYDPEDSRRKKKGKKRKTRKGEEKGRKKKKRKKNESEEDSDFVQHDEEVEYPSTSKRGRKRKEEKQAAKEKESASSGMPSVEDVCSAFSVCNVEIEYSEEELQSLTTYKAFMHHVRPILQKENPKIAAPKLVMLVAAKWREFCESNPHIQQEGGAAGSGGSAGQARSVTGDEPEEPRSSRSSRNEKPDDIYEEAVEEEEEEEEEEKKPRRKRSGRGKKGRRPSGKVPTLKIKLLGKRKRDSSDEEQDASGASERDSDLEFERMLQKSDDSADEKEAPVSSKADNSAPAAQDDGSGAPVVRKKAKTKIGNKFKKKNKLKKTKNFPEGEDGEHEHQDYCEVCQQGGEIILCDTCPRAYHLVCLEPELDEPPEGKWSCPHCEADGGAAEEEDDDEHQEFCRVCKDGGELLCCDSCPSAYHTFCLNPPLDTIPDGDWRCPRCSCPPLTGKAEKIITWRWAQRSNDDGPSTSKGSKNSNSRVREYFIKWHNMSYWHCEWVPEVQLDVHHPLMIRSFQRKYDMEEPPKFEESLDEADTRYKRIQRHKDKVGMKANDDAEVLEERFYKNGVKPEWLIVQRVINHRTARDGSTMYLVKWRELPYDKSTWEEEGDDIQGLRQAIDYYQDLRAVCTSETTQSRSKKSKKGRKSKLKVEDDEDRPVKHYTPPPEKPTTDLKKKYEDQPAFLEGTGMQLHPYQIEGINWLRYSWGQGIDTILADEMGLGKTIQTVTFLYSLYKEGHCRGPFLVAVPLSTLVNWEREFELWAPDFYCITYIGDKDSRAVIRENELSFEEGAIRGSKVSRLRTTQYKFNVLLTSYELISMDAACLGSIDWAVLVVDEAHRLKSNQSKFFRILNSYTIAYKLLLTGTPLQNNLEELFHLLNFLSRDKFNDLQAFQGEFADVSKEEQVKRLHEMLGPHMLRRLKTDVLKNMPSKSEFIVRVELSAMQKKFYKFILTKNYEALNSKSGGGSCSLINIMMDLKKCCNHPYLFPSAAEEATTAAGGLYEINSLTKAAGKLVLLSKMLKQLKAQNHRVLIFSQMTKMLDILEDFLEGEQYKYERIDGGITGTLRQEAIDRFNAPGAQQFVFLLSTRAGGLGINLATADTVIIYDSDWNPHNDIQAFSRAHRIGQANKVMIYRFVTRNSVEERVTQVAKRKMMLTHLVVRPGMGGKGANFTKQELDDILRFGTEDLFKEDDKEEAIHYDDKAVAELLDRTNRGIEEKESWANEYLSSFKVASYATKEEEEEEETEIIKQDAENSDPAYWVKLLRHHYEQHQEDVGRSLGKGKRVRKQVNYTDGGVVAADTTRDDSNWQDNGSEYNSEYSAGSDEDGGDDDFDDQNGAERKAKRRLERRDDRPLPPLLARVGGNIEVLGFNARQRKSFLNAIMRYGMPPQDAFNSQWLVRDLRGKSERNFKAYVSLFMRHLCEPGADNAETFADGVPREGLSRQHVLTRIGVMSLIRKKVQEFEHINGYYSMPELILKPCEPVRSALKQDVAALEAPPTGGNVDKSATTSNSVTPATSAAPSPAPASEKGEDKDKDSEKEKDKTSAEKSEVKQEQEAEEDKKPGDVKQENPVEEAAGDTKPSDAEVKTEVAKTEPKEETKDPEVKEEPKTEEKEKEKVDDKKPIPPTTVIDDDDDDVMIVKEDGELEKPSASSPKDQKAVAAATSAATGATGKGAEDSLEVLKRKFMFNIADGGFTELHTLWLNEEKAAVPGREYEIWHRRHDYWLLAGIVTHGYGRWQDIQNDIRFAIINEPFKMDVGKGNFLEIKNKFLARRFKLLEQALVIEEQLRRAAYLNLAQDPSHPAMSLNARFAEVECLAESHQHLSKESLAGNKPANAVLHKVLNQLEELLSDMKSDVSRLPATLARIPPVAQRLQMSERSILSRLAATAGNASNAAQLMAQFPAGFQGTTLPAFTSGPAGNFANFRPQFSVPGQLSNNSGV

Molecular target: T1, N-terminally FLAG-tagged EcR (Drosophila) (UniProt P34021)
T1 sequence: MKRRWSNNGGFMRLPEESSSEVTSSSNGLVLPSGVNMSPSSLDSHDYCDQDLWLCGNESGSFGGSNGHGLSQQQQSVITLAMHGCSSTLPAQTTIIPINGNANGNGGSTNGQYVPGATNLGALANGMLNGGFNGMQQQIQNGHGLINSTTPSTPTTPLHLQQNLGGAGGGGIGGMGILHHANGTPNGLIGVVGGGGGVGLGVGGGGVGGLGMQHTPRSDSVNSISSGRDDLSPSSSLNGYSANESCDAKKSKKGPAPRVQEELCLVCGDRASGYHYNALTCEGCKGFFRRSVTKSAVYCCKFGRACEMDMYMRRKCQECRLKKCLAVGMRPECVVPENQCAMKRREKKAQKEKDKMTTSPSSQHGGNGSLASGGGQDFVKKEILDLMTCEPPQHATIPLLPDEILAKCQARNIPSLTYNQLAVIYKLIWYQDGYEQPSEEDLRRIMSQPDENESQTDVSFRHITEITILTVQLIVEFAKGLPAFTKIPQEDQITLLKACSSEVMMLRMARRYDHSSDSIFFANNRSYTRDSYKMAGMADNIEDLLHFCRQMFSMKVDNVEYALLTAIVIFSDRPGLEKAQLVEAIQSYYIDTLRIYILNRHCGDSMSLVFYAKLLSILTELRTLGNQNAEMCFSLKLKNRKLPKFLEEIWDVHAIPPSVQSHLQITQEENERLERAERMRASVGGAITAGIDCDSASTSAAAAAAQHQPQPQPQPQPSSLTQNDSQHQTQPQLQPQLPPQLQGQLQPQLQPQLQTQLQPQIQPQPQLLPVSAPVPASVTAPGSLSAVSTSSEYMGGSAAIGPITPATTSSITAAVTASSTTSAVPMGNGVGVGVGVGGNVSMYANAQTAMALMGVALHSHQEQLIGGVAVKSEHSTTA
Experiment: co-IP; Sf9 cells co-infected with baculoviruses; whole-cell extract on FLAG agarose, 4 h at 4 °C; washed with high salt buffer (20 mM Hepes pH 7.6, 1000 mM KCl, 0.1% NP40, 10% glycerol); SDS-PAGE and Coomassie staining; also with ecdysone-treated cells and charcoal-treated serum

dMi-2 (untagged, baculovirus-expressed) (from UniProt O97159 1-1982)
binding: binds
